Source: PMC3795639
Positions count from the first letter of the chain named. No constants are given. Whether binding was seen depends on the method and setting. Binding seen in cells or lysates may run through a third protein. Some entries that bind do so weakly or less than the wild type. Sequences can lack the tags named with a protein.

By UniProt entry, the sequences of proteins in these tests, tags left out.
UniProt P84022: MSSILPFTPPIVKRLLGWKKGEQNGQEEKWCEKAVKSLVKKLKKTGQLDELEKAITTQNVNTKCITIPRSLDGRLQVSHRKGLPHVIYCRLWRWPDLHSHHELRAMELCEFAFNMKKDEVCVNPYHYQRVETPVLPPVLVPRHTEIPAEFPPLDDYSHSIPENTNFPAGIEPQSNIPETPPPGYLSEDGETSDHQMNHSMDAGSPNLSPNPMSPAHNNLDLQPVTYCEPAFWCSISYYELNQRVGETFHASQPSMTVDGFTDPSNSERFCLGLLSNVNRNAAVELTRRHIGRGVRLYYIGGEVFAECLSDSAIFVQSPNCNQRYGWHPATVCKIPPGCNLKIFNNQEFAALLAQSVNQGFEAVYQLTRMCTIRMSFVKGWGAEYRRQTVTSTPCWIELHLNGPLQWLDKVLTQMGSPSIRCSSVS
UniProt Q15797: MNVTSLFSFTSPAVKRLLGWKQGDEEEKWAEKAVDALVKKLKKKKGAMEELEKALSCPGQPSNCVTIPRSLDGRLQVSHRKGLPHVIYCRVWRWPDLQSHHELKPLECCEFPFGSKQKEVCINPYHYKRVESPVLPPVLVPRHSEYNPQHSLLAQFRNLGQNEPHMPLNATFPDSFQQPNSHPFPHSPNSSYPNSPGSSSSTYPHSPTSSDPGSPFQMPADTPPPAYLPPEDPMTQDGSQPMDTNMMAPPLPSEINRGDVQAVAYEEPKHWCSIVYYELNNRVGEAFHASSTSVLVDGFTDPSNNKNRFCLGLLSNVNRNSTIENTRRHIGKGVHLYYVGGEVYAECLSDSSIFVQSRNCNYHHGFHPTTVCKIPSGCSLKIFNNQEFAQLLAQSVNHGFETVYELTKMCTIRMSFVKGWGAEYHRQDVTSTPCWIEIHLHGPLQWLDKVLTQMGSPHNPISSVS
UniProt Q99717: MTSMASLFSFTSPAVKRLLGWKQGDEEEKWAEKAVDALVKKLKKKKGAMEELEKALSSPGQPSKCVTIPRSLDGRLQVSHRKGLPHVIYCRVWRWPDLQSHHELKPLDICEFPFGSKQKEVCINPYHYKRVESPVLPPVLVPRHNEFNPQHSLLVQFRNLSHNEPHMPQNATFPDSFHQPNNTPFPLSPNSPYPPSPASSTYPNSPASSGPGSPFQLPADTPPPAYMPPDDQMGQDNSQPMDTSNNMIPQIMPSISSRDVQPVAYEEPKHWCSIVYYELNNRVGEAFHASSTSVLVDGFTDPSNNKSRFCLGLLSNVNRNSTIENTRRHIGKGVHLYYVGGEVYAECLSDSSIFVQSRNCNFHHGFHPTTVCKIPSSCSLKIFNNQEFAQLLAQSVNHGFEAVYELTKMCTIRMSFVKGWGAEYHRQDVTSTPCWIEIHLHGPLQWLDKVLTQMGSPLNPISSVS

What was measured:
Flag-tagged Smad3 [1] = molecular target: Flag-tagged Smad3 (UniProt P84022); experiment: co-IP; as a1, but extracts of transfected HEK293T cells that were not stimulated with ligand
Flag-tagged Smad1 = Flag-tagged Smad1 (UniProt Q15797); experiment: co-IP; extracts of transfected HEK293T cells stimulated 24 h after transfection with rhTGFβ1 (5 ng/ml) or rhBMP4 (25 ng/ml) for 1.5 h; lysis buffer 170 mM NaCl, 10 mM EDTA, 50 mM Tris-HCl pH7.4, 0.5% NP-40; 500 µg of protein incubated overnight with protein G magnetic beads bound to anti-HA or anti-FLAG antibody; Western blot
Flag-tagged Smad3 [2] = molecular target: Flag-tagged Smad3 (UniProt P84022); experiment: as above
Flag-tagged Smad5 = Flag-tagged Smad5 (UniProt Q99717); experiment: as above

B1: peptide aptamer A1 (entire 51 aa-long Sip1 SBD inserted in HA-tagged Trx) (domain or fragment, UniProt Q9R0G7 437-487)
chain: QHLGVGMEAPLLGFPTMNSNLSEVQKVLQIVDNTVSRQKMDCKTEDISKLK
B1 was tested. Which binding (Flag-tagged Smad3 [1]) did it give?
Its binding is “no binding (condition: cells not stimulated with TGFβ1)”.

What about the binding (Flag-tagged Smad1) of the same binder?
Its binding is “binds”.

And the binding (Flag-tagged Smad3 [2])?
The binding was “binds”.

And the binding (Flag-tagged Smad5)?
Its binding is “binds”.

B2: peptide aptamer A6 (Sip1 aa459-472 inserted in HA-tagged Trx) (domain or fragment, UniProt Q9R0G7 459-472)
chain: EVQKVLQIVDNTVS
For B2, which binding (Flag-tagged Smad1) is on record?
The binding was “binds”.

And the binding (Flag-tagged Smad3 [2])?
The binding was “binds”.

B3: full-length, wild-type (WT) Myc-tagged Sip1 (protein, UniProt Q9R0G7 1-1215)
chain: MKQPIMADGPRCKRRKQANPRRKNVVNYDNVVDAGSETDEEDKLHIAEDDSLANPLDQDTSPASMPNHESSPHMSQGLLPREEEEEELRESVVEHSWHSGEILQASVAGPEEMKEDYDAMGPEATIQTTINNGTVKNANCTSDFEEYFAKRKLEERDGHAVSIEEYLQRSDTAIIYPEAPEELSRLGTPEANGQEENDLPPGTPDAFAQLLTCPYCDRGYKRLTSLKEHIKYRHEKNEENFSCPLCSYTFAYRTQLERHMVTHKPGTDQHQMLTQGAGNRKFKCTECGKAFKYKHHLKEHLRIHSGEKPYECPNCKKRFSHSGSYSSHISSKKCIGLISVNGRMRNNIKTGSSPNSVSSSPTNSAITQLRNKLENGKPLSMSEQTGLLKIKTEPLDFNDYKVLMATHGFSGSSPFMNGGLGATSPLGVHPSAQSPMQHLGVGMEAPLLGFPTMNSNLSEVQKVLQIVDNTVSRQKMDCKTEDISKLKGYHMKDPCSQPEEQGVTSPNIPPVGLPVVSHNGATKSIIDYTLEKVNEAKACLQSLTTDSRRQISNIKKEKLRTLIDLVTDDKMIENHSISTPFSCQFCKESFPGPIPLHQHERYLCKMNEEIKAVLQPHENIVPNKAGVFVDNKALLLSSVLSEKGLTSPINPYKDHMSVLKAYYAMNMEPNSDELLKISIAVGLPQEFVKEWFEQRKVYQYSNSRSPSLERTSKPLAPNSNPTTKDSLLPRSPVKPMDSITSPSIAELHNSVTSCDPPLRLTKSSHFTNIKAVDKLDHSRSNTPSPLNLSSTSSKNSHSSSYTPNSFSSEELQAEPLDLSLPKQMREPKGIIATKNKTKATSINLDHNSVSSSSENSDEPLNLTFIKKEFSNSNNLDNKSNNPVFGMNPFSAKPLYTPLPPQSAFPPATFMPPVQTSIPGLRPYPGLDQMSFLPHMAYTYPTGAATFADMQQRRKYQRKQGFQGDLLDGAQDYMSGLDDMTDSDSCLSRKKIKKTESGMYACDLCDKTFQKSSSLLRHKYEHTGKRPHQCQICKKAFKHKHHLIEHSRLHSGEKPYQCDKCGKRFSHSGSYSQHMNHRYSYCKREAEEREAAEREAREKGHLEPTELLMNRAYLQSITPQGYSDSEERESMPRDGESEKEHEKEGEEGYGKLRRRDGDEEEEEEEEESENKSMDTDPETIRDEEETGDHSMDDSSEDGKMETKSDHEEDNMEDGME
What does the source list for B3?
binding (Flag-tagged Smad1): binds; binding (Flag-tagged Smad3 [2]): binds

B4: full-length Sip1(AxAx)2 mutant (protein, UniProt Q9R0G7 1-1215)
chain: B3 chain with Q461A, V463A, Q465A, V467A
With B4 as the binder, how does the binding (Flag-tagged Smad1) read?
The binding was “no binding”.

And the binding (Flag-tagged Smad3 [2])?
Its binding is “no binding”.
